Test results as given in the supplement of paper PMC5655136.
Values come from read counts of a selection and are noisy.

Test system: NB7
Test: fold depletion of shRNA, plasmid library share / infected cells without Dox share (9 days) (ratio); higher = more depleted after infection (more toxic, leaky expression from a Tet-inducible vector; NB7 is a neuroblastoma line without caspase-8)
[1] = shRNA pool: CD95 ORF + CD95 3'UTR + Venus libraries
[2] = shRNA pool: CD95L ORF + CD95L 3'UTR + Venus libraries
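Further: shRNA barcodes quantified by deep sequencing of PCR amplicons from cellular DNA, counts expressed as percent of each subpool, ratio averaged over two biological duplicates.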

Row | Sequence | fold depletion of shRNA [1] | fold depletion of shRNA [2]
1 | GCCCATTTTTCTTCCAAATGC | 1.17 | 
2 | GCCCCACTGGCAGCATCTTCA |  | 1.25
3 | GCCCCGTGCTGCTGCCCGACA | 0.683 | 0.748
4 | GCCCCTCCAGGCACAGTTCTT |  | 32.2
5 | GCCCCTTGTGTTTGGAATTAT | 1.31 | 
6 | GCCCGAAGGCTACGTCCAGGA | 0.721 | 0.725
7 | GCCCGACAACCACTACCTGAG | 0.934 | 1.21
8 | GCCCGCAGCAGCTACCTGGGG |  | 0.443
9 | GCCCGCTACCCCGACCACATG | 1.01 | 1.02
10 | GCCCGTGCCCTGGCCCACCCT | 1.01 | 1.44
11 | GCCCTGAGCAAAGACCCCAAC | 0.888 | 1.07
12 | GCCCTGCCAAGAAGGGAAGGA | 1.25 | 
13 | GCCCTGGCCCACCCTCGTGAC | 0.835 | 0.635
14 | GCCCTGTCCTCCAGGTGAAAG | 1.36 | 
15 | GCCCTTAGAAATTCTAGCCTG | 0.565 | 
16 | GCCCTTCAATTACCCATATCC |  | 5.68
17 | GCCGACAAGCAGAAGAACGGC | 1.17 | 0.533
18 | GCCGACCACTACCAGCAGAAC | 0.808 | 0.803
19 | GCCGAGGTGAAGTTCGAGGGC | 1.74 | 0.711
20 | GCCGCCGCCACCACTGCCTCC |  | 0.139
21 | GCCGCCGCCGCCACCACTGCC |  | 0.259
22 | GCCGCCGGGATCACTCTCGGC | 0.933 | 0.512
23 | GCCGGGATCACTCTCGGCATG | 2.71 | 0.312
24 | GCCTCCAAGGATGTTTAAAAT | 1.88 | 
25 | GCCTCCACTACCGCTGCCACC |  | 75.3

Row | Sequence | fold depletion of shRNA [1] | fold depletion of shRNA [2]
26 | GCCTCTAAATTACCTCTGATA | 1.79 | 
27 | GCCTGAGAGTATTTAGGCAGA |  | 0.822
28 | GCCTGCAGTGCTTCGCCCGCT | 0.894 | 0.551
29 | GCCTGCATCATGATGGCCAAT | 0.743 | 
30 | GCCTGGGGATGTTTCAGCTCT |  | 6.55
31 | GCCTGGTCAAAGGAGGCCACC |  | 0.687
32 | GCCTGTGTCTCCTTGTGATGT |  | 4.23
33 | GCCTTGCTACCTCAAGGGGGA |  | 1.78
34 | GCCTTGGTAGGATTGGGCCTG |  | 0.728
35 | GCCTTGGTGCTCATCTTAATG | 1.31 | 
36 | GCCTTGTGATCAATGAAACTG |  | 3.03
37 | GCGACACCCTGGTGAACCGCA | 0.808 | 1.8
38 | GCGACGGCCCCGTGCTGCTGC | 0.659 | 0.291
39 | GCGACGTAAACGGCCACAAGT | 0.91 | 0.878
40 | GCGAGGAGCTGTTCACCGGGG | 0.982 | 1.07
41 | GCGAGGGCGAGGGCGATGCCA |  | 0.472
42 | GCGAGGGCGATGCCACCTACG | 1.25 | 0.707
43 | GCGATCACATGGTCCTGCTGG | 1.46 | 1.2
44 | GCGATGCCACCTACGGCAAGC | 1.51 | 2.81
45 | GCGCACCATCTTCTTCAAGGA | 1.74 | 2.32
46 | GCGCCGAGGTGAAGTTCGAGG | 0.885 | 0.804
47 | GCGCGATCACATGGTCCTGCT | 0.701 | 1.22
48 | GCGCTGAAGAGCCAACATATT | 1.26 | 
49 | GCGTATGACACATTGATTAAA | 0.837 | 
50 | GCGTGCAGCTCGCCGACCACT | 0.863 | 0.404

Row | Sequence | fold depletion of shRNA [1] | fold depletion of shRNA [2]
51 | GCGTGCCCTGCCAAGAAGGGA | 0.805 | 
52 | GCGTGTCCGGCGAGGGCGAGG | 0.47 | 0.802
53 | GCTAACCCCACTCTATGAATC | 2.7 | 
54 | GCTAAGTACCCAAATAGGAGT | 3.52 | 
55 | GCTACAAATGGCAGCTTATAC | 1.31 | 
56 | GCTACCAGGTGTTCTACACTC |  | 2.31
57 | GCTACCAGTCCGCCCTGAGCA | 1.05 | 2.09
58 | GCTACCCCGACCACATGAAGC | 1.11 | 0.964
59 | GCTACCTCAAGGGGGACTGTC |  | 3.02
60 | GCTACCTGGGGGCAGTGTTCA |  | 1.1
61 | GCTACGGCCTGCAGTGCTTCG | 1.05 | 0.94
62 | GCTACGTCCAGGAGCGCACCA | 0.55 | 0.45
63 | GCTACTAATGATGTTTTCCTA |  | 2.47
64 | GCTACTGCACTACTGGGCAGA |  | 1.35
65 | GCTAGATTATCGTCCAAAAGT | 1.16 | 
66 | GCTATGACCTTTTGCTGAAAT | 1.34 | 
67 | GCTCAAAACTACCTACTTCTT | 0.872 | 
68 | GCTCATCTTAATGGCCTAATG | 1.43 | 
69 | GCTCCTCAACTCACCTAATGT |  | 0.591
70 | GCTCGCCGACCACTACCAGCA | 1.68 | 1.11
71 | GCTCTACCTCAAAGACCTTTG | 5.15 | 
72 | GCTCTCAGAGAAAGTAGCTTT | 2 | 
73 | GCTCTCCCTGGGCCCCTCCAG |  | 24.8
74 | GCTCTCTCTGGTCAATTTTGA |  | 1.21
75 | GCTCTTCCACCTACAGAAGGA |  | 2.66

Row | Sequence | fold depletion of shRNA [1] | fold depletion of shRNA [2]
76 | GCTCTTGTCATACCCCCAAGT | 2.11 | 
77 | GCTGAAAGAGGCCAATGCCCC |  | 1.73
78 | GCTGAAATATCAGTTACTGAA | 1.14 | 
79 | GCTGAAGAGCCAACATATTTG | 3.15 | 
80 | GCTGAAGGGCATCGACTTCAA | 3.09 | 3.51
81 | GCTGACCCTGAAGCTGATCTG | 1.39 | 
82 | GCTGAGGAAAGTGGCCCATTT |  | 0.393
83 | GCTGATCATTTATATGTCAAC |  | 1.06
84 | GCTGATCTGCACCACCGGCAA | 2.66 | 2.6
85 | GCTGCCACCCCTGAAGAAGAG |  | 4.28
86 | GCTGCCATGTGAAGAGGGAGA |  | 0.691
87 | GCTGCCCGACAACCACTACCT | 0.988 | 0.711
88 | GCTGCCCGTGCCCTGGCCCAC | 0.94 | 0.995
89 | GCTGCTGCCCGACAACCACTA | 1.68 | 
90 | GCTGGACGGCGACGTAAACGG | 0.79 | 0.567
91 | GCTGGAGTACAACTACAACAG |  | 3.09
92 | GCTGGAGTCATGACACTAAGT | 1.62 | 
93 | GCTGGAGTTCGTGACCGCCGC | 1.06 | 1.45
94 | GCTGGCAGAACTCCGAGAGTC |  | 5.99
95 | GCTGGGCATCTGGACCCTCCT | 1.25 | 
96 | GCTGTAAATACTGCTTGGTTT | 1.68 | 
97 | GCTGTACTTTGTATATTCCAA |  | 0.903
